Source: the supplement of paper PMC12217912
The list shows a part of the results. Sequences were assembled here from the parent chain. Inactive controls read about 0.05.

B1: TEV protease; numbered along this chain (parent)
chain: MGESLFKGPRDYNPISSSICHLTNESDGHTTSLYGIGFGPFIITNKHLFRRNNGTLVVQSLHGVFKVKDTTTLQQHLVDGRDMIIIRMPKDFPPFPQKLKFREPQREERICLVTTNFQTKSMSSMVSDTSCTFPSGDGIFWKHWIQTKDGQCGSPLVSTRDGFIVGIHSASNFTNTNNYFTSVPKNFMELLTNQEAQQWVSGWRLNADSVLWGGHKVFMVKPEEPFQPVKEATQL

Variants of: B1
Experiment: raw area under fraction-flipped curve 0-4 h after induction (AUC4h, not background-subtracted), DNA-recorder readout of cleavage of the substrate (dimensionless); higher = more cleavage of the substrate by the protease variant
Settings: temperature: 34 °C; time window: 0-4 h after rhamnose induction
Procedure: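 In vivo DNA recorder in E. coli TOP10(DE3) ΔrhaA at 34 °C. Each TEVp single-site mutant (parent TEVp 0) is paired with a single-site variant of the 7-mer TEVs (canonical ENLYFQ|S). The substrate sits between flexible linkers in a Bxb1-sfGFP-TEVs-SsrA fusion, so cleavage stabilises Bxb1 and speeds flipping of a recombination array, read by NGS. The value is the raw area under the fraction-flipped curve over 0-4 h after rhamnose induction (AUC4h), with ≥20 reads per time point. It is not background-subtracted; inactive controls average about 0.047.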
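Note: Bxb1 expression induced with 0.2% (w/v) L-rhamnose at OD600 near 0.5, cultures sampled hourly, flipped fraction per protease–substrate barcode pair counted by paired-end Illumina sequencing.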

| Variant | area with substrate ENLAFQS | area with substrate ENLCFQS | area with substrate ENLDFQS | area with substrate ENLEFQS | area with substrate ENLFFQS | area with substrate ENLIFQS | area with substrate ENLKFQS | area with substrate ENLMFQS | area with substrate ENLNFQS | area with substrate ENLPFQS | area with substrate ENLQFQS | area with substrate ENLRFQS | area with substrate ENLSFQS | area with substrate ENLGFQS | area with substrate ENLWFQS | area with substrate ENLHFQS | area with substrate ENLLFQS | area with substrate ENLVFQS | area with substrate ENLTFQS |
| --- | --- | --- | --- | --- | --- | --- | --- | --- | --- | --- | --- | --- | --- | --- | --- | --- | --- | --- | --- |
| L77C | 0.0779 | 0.0531 | 0.0708 | 0.0541 | 0.09 | 0.0548 | 0.0784 | 0.0644 | 0.0602 | 0.0627 | 0.0585 | 0.0584 | 0.0443 |  |  |  |  |  |  |
| D69Y | 0.0552 |  |  | 0.0477 | 0.0866 |  | 0.0713 |  | 0.048 |  |  |  | 0.0631 | 0.0834 | 0.0623 |  |  |  |  |
| I43Y | 0.0532 | 0.0782 | 0.0541 | 0.0435 | 0.0582 | 0.0682 | 0.075 |  | 0.0654 | 0.0455 |  |  | 0.0422 | 0.051 |  | 0.056 | 0.0476 |  |  |
| R87F | 0.0609 |  | 0.0593 | 0.0543 | 0.0907 |  | 0.0741 |  | 0.0804 | 0.0609 | 0.0737 | 0.0654 | 0.0763 |  |  | 0.0304 | 0.0481 | 0.0813 |  |
| R87S | 0.0659 | 0.0605 |  | 0.0732 | 0.0844 |  |  | 0.0759 | 0.0672 | 0.0499 |  | 0.0684 |  |  | 0.0577 | 0.0559 | 0.0618 | 0.0665 |  |
| T70N | 0.0502 | 0.0581 | 0.0451 | 0.0488 | 0.0554 |  |  |  | 0.0647 | 0.0639 |  | 0.0706 |  |  | 0.063 |  |  |  |  |
| T71R | 0.0733 |  | 0.0628 |  |  | 0.081 | 0.0607 | 0.079 | 0.203 |  | 0.0877 | 0.0872 | 0.0665 |  |  | 0.0688 |  | 0.0861 |  |
| T71K | 0.0424 |  | 0.0565 | 0.0629 | 0.077 |  | 0.11 |  |  | 0.0535 | 0.0639 | 0.0794 |  |  |  |  |  | 0.086 | 0.0505 |
| V58H | 0.0521 | 0.0541 | 0.0399 |  |  |  | 0.0503 |  |  | 0.0532 |  | 0.0481 |  |  | 0.0273 |  | 0.0507 |  |  |
| F49W | 0.0634 | 0.0889 | 0.0625 | 0.0533 | 0.0827 | 0.0912 | 0.0736 | 0.0641 | 0.0657 | 0.0618 | 0.0549 | 0.0738 | 0.0564 |  | 0.0744 | 0.0527 | 0.061 | 0.0751 |  |
| D91I | 0.0773 | 0.0568 | 0.063 | 0.0613 |  |  |  | 0.0769 | 0.0656 | 0.047 | 0.0599 |  |  | 0.0588 |  | 0.0647 | 0.0619 | 0.087 | 0.0743 |
| D91K | 0.0876 |  | 0.0614 | 0.0599 | 0.0736 |  |  |  | 0.0531 |  |  |  |  |  |  | 0.0629 | 0.154 |  |  |
| V67Y | 0.0569 | 0.0706 | 0.061 | 0.0896 | 0.0703 | 0.0805 |  | 0.0767 | 0.0598 |  |  |  |  |  |  | 0.0701 | 0.0663 |  |  |
| V67K | 0.0727 |  |  | 0.0901 | 0.07 | 0.0707 |  |  |  |  |  | 0.0517 | 0.0606 |  |  | 0.0673 | 0.0535 | 0.0657 |  |
| V67F | 0.0693 |  | 0.0606 | 0.054 | 0.096 | 0.0348 | 0.0662 | 0.0784 | 0.0574 |  |  | 0.0817 | 0.0588 |  |  |  |  |  |  |
| V67P | 0.0485 | 0.0449 | 0.0371 | 0.0308 | 0.0288 |  | 0.0571 |  |  | 0.0615 |  | 0.047 | 0.0746 |  |  | 0.0256 | 0.0469 |  |  |
